Values of other authors, collected in paper PMC11006913.
Numbering of substitutions follows the chain as printed. The list shows a part of the results.

Experiments:
Conditions in all cases: PBM; conditions not shown; double strand, one strand shown; scale: upbm affinity estimate (log intensity, higher = more binding, comparable within an allelic series)
[1] = molecular target: T1, HESX1 E149K (Homo sapiens) (UniProt Q9UBX0)
T1 sequence: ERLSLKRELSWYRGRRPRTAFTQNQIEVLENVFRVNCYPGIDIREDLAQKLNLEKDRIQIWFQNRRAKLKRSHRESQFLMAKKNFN

[2] = molecular target: T2, HESX1 N125S (Homo sapiens) (UniProt Q9UBX0)
T2 sequence: T1 sequence with N31S, K55E

[3] = molecular target: T3, HESX1 R160C (Homo sapiens) (UniProt Q9UBX0)
T3 sequence: T1 sequence with K55E, R66C

Row | Sequence | binding signal [1] | binding signal [2] | binding signal [3]
1 | GCGGGCCA [8-mer GCGGGCCA] | 9.93 | 7.7 | 9.99
2 | ATTAGCAC [8-mer ATTAGCAC] | 10.8 | 9.72 | 10.3
3 | ACCCCCAC [8-mer ACCCCCAC] | 9.87 | 7.71 | 10
4 | GCTCGCCC [8-mer GCTCGCCC] | 9.93 | 7.77 | 10
5 | CCCCCTTA [8-mer CCCCCTTA] | 9.93 | 7.81 | 10
6 | GCTGCGAC [8-mer GCTGCGAC] | 10 | 7.68 | 10
7 | ATTAGTGG [8-mer ATTAGTGG] | 11 | 10.1 | 10.3
8 | AGGCCCGG [8-mer AGGCCCGG] | 9.78 | 7.73 | 9.98
9 | CCTAGCCG [8-mer CCTAGCCG] | 9.89 | 7.78 | 10
10 | GGGGGTCA [8-mer GGGGGTCA] | 9.93 | 7.56 | 9.98
11 | AAAGACGC [8-mer AAAGACGC] | 10.1 | 7.97 | 10.1
12 | ACGGGGCC [8-mer ACGGGGCC] | 10 | 7.8 | 10.1
13 | CGACCGGC [8-mer CGACCGGC] | 10 | 7.71 | 10
14 | CGCTGCCG [8-mer CGCTGCCG] | 9.81 | 7.51 | 9.85
15 | AGCACCCC [8-mer AGCACCCC] | 9.96 | 7.74 | 10.2
16 | AGCTGGTG [8-mer AGCTGGTG] | 10.1 | 7.71 | 10.1
17 | AGGCCTAG [8-mer AGGCCTAG] | 9.94 | 7.68 | 10
18 | GCGCGTCC [8-mer GCGCGTCC] | 9.94 | 7.57 | 10.1
19 | GTCGCCTA [8-mer GTCGCCTA] | 10 | 7.61 | 10
